The values that follow come from article PMC4336329 (PLoS ONE, 2015).

The campaign covered roughly 310,000 compounds. About 2,200 (0.71%) showed an effect of 50% or more. The effect is printed as a negative number. Some of the results follow.

human ether-à-go-go-related gene (hERG) potassium channel, sequence (Q12809 whole entry, looked up): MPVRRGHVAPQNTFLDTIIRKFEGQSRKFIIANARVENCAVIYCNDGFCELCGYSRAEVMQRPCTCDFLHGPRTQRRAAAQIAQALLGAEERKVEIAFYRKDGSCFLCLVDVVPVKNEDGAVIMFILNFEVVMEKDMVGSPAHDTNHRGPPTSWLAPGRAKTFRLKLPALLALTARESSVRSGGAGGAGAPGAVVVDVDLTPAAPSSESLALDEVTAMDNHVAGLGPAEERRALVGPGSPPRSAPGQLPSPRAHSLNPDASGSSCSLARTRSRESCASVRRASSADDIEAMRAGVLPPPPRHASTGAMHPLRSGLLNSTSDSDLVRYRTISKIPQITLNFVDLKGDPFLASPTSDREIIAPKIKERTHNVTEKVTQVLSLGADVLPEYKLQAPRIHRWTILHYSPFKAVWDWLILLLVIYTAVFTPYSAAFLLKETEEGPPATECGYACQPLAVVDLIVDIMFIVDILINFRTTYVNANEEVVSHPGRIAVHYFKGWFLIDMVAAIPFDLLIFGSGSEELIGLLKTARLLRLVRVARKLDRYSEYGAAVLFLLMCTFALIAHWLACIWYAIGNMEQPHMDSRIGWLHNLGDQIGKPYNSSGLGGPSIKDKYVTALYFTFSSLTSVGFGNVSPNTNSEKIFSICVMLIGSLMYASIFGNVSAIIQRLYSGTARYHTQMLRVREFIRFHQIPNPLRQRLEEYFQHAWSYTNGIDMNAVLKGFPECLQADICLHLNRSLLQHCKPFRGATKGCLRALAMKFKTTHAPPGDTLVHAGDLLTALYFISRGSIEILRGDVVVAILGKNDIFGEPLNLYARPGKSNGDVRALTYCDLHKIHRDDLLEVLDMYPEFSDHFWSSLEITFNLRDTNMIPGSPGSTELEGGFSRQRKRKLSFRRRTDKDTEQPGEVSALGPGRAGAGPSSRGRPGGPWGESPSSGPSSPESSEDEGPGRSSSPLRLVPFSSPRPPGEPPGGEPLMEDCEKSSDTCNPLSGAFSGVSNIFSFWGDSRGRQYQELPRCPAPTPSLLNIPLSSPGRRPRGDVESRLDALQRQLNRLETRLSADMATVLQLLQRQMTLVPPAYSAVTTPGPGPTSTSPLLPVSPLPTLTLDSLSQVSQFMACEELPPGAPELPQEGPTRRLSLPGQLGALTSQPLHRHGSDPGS

The assay addresses human ether-à-go-go-related gene (hERG) potassium channel (human, UniProt Q12809). The assay is described as follows: primary screen, population patch clamp on CHO cells stably expressing hERG.
In the case of `COc1cc(OC)cc(C(=O)N2CCC(N3CCN(c4ccccc4)CC3)CC2)c1`, the “hERG current change (%, negative = inhibition) at 1uM” value is reported as -10.7%.

On to `CCOc1ccccc1/C=N/n1c(COc2ccccc2)n[nH]c1=S`, for which the “hERG current change (%, negative = inhibition) at 1uM” value was 8.49%.

For the molecule `O=C(NCCO)c1cccc(Nc2nc(-c3ccccc3)c3cc(Cl)ccc3n2)c1`, the “hERG current change (%, negative = inhibition) at 1uM” value was 0.423%.

In the case of `COc1cccc(CCNC(=O)c2cc(COc3c(F)cccc3F)on2)c1`, the “hERG current change (%, negative = inhibition) at 1uM” value was -8.43%.

For `CCN(CC)CCCNC(=O)c1ccc(S(=O)(=O)Nc2ccc(C)c(C)c2)cc1`, the “hERG current change (%, negative = inhibition) at 1uM” value came to 4.02%.

Take `COc1ccc(CN(C)C(=O)c2cccc(NS(=O)(=O)c3ccccc3)c2)cc1F`: the “hERG current change (%, negative = inhibition) at 1uM” value turned out to be 0.534%.

With `Cc1cccc2sc(NS(=O)(=O)c3ccccc3)nc12`, the “hERG current change (%, negative = inhibition) at 1uM” value came to 1.07%.

`O=C(O/N=C1/CCSc2ccccc21)c1ccc(F)cc1`: the “hERG current change (%, negative = inhibition) at 1uM” value came out at 10.5%.

In the case of `CC(C)c1ccc(/C=N/NC(=O)c2nnn(-c3nonc3N)c2CN(C)C2CCCCC2)cc1`, the “hERG current change (%, negative = inhibition) at 1uM” value worked out at 10.4%.

Turning to `Cc1ccc(S(=O)(=O)N2CC(O)CC2C(=O)O)cc1` (stereo not shown), the “hERG current change (%, negative = inhibition) at 1uM” value turned out to be 15.9%.

For `CC1CCN(CCc2nc3cc(NC(=O)COc4ccc([N+](=O)[O-])cc4)ccc3n2C)CC1`, the “hERG current change (%, negative = inhibition) at 1uM” value is recorded as -2.45%.

For `COc1ccccc1C(=O)Nc1ccc(N2CCN(S(C)(=O)=O)CC2)cc1`, the “hERG current change (%, negative = inhibition) at 1uM” value is 13%.

Regarding `CC(C(=O)NC1CCCC1)N(C(=O)c1snc(C(N)=O)c1N)c1ccc2c(c1)OCCO2` (stereo not shown), the “hERG current change (%, negative = inhibition) at 1uM” value worked out at 1.93%.

`CC1=CC2=NC(=O)/C(=C\c3cn(C)c4ccccc34)C(=N)N2O1`: the “hERG current change (%, negative = inhibition) at 1uM” value is 4.1%.

As for `CCOC(=O)c1sc(NC(=S)NC(=O)c2cccc(Cl)c2)c(C(=O)OCC)c1C`, the “hERG current change (%, negative = inhibition) at 1uM” value was determined as 1.03%.

With `COC(=O)c1ccc(=O)n(Cc2ccc3c(c2)OCO3)c1`, the “hERG current change (%, negative = inhibition) at 1uM” value is on record as 15.2%.

In the case of `NC(=O)N1c2ccccc2CC(=O)c2ccccc21`, the “hERG current change (%, negative = inhibition) at 1uM” value was 1.72%.

For the molecule `COc1cccc(OCc2nnc(SC)n2C)c1`, the “hERG current change (%, negative = inhibition) at 1uM” value was determined as 3.9%.

As to `COc1ccc(CCNC(=O)c2ccc(Br)cc2)cc1`, the “hERG current change (%, negative = inhibition) at 1uM” value worked out at 12.3%.

As for `c1ccc2[nH]c(CSc3nc4ccccc4s3)nc2c1`, the “hERG current change (%, negative = inhibition) at 1uM” value was -3.7%.

With `COC(=O)c1cc(Cl)c(NC(=O)c2ccco2)cc1OC`, the “hERG current change (%, negative = inhibition) at 1uM” value came to 14.5%.

Consider `Cc1nn(-c2ccccc2)c(N)c1C(c1ccccc1)c1c(C)nn(-c2ccccc2)c1N`, for which the “hERG current change (%, negative = inhibition) at 1uM” value came out at 6.85%.

`COc1ccc(CC(=O)OCn2nnc3ccccc3c2=O)cc1`: the “hERG current change (%, negative = inhibition) at 1uM” value amounted to 2.32%.

Turning to `O=C(Nc1ccc(OC(F)(F)F)cc1)C1CCCN(S(=O)(=O)c2cnc[nH]2)C1` (stereo not shown), the “hERG current change (%, negative = inhibition) at 1uM” value came out at 9.5%.

In the case of `Cn1cc(CCCC(=O)NCc2ccccc2)c2ccccc21`, the “hERG current change (%, negative = inhibition) at 1uM” value is on record as 18.4%.

For `O=C(N/N=C/c1ccco1)c1cccc(N2Cc3ccccc3C2)c1`, the “hERG current change (%, negative = inhibition) at 1uM” value amounted to 8.43%.

Turning to `CCc1cccc(C)c1NC(=O)C1CN(S(=O)(=O)c2ccccc2)CCN1S(=O)(=O)c1ccccc1` (stereo not shown), the “hERG current change (%, negative = inhibition) at 1uM” value was -3.57%.

Regarding `COc1ccc(OC)c(N(CC(=O)NCCSCc2ccco2)S(=O)(=O)c2ccccc2)c1`, the “hERG current change (%, negative = inhibition) at 1uM” value is given as -12.2%.

For the molecule `CC(=O)N1N=C(c2ccncc2)CC1c1ccccc1O` (stereo not shown), the “hERG current change (%, negative = inhibition) at 1uM” value turned out to be 15.6%.

Turning to `CSCCC(NC(N)=O)C(=O)Nc1ccc(F)c(Cl)c1` (stereo not shown), the “hERG current change (%, negative = inhibition) at 1uM” value was 12.2%.

Regarding `S=C(c1ccc(-c2ccc(Br)cc2)o1)N1CCCCC1`, the “hERG current change (%, negative = inhibition) at 1uM” value was determined as 15.2%.

Consider `O=C(Nc1ccc(C2CC2(Cl)Cl)cc1)c1ccccc1Br` (stereo not shown), for which the “hERG current change (%, negative = inhibition) at 1uM” value was 15.1%.

As to `CCN(CC)C(=O)N(CC)Cc1ccccc1`, the “hERG current change (%, negative = inhibition) at 1uM” value turned out to be 5.22%.

In the case of `COc1ccccc1/C=N/N1CCN(c2ccc(Cl)cc2)CC1`, the “hERG current change (%, negative = inhibition) at 1uM” value was found to be 10.7%.

`Cc1cccc(OCc2nnc(SCC(=O)N(c3ccccc3)C3CCS(=O)(=O)C3)o2)c1` (stereo not shown): the “hERG current change (%, negative = inhibition) at 1uM” value was 0.165%.

As for `O=C(C1CC1(c1ccccc1)c1ccccc1)N1CCOCC1` (stereo not shown), the “hERG current change (%, negative = inhibition) at 1uM” value turned out to be 2.96%.

In the case of `Cc1noc(C)c1C(=O)N1CCc2ccccc2C1`, the “hERG current change (%, negative = inhibition) at 1uM” value is 10.2%.

For `COc1cccc(C2c3[nH]c4ccccc4c3CCN2Cc2cccn2-c2ncccn2)c1` (stereo not shown), the “hERG current change (%, negative = inhibition) at 1uM” value is -37%.

Turning to `CSCCC(NC(=O)c1ccccc1Cl)C(=O)N1CCCCC1` (stereo not shown), the “hERG current change (%, negative = inhibition) at 1uM” value amounted to 9.86%.

Consider `CCOC(=O)c1nc(N)sc1C(=O)OCC`, for which the “hERG current change (%, negative = inhibition) at 1uM” value came out at 6.65%.

Turning to `COc1ccc(NC(=S)Nc2ccc(OCc3ccccc3)cc2)cc1OC`, the “hERG current change (%, negative = inhibition) at 1uM” value was 11.1%.

Take `COc1ccc(C2=NOC3(CC(=O)N(c4ccc(F)cc4)C3=O)C2)cc1` (stereo not shown): the “hERG current change (%, negative = inhibition) at 1uM” value worked out at 12.4%.

For `O=C(NCc1ccccn1)c1cn(-c2ccccc2)nc1-c1ccc(Cl)cc1`, the “hERG current change (%, negative = inhibition) at 1uM” value was 10.1%.
